Data from PubChem BioAssay AID1508624 (National Center for Advancing Translational Sciences (NCATS), 2021).
Among all 48,000 compounds or so, about 120 (0.25%) were called active. Not shown: some 4% with an inconclusive outcome. Calls follow the shape of the dose curve; as a rule, active = well fitted activation curve with a large enough effect; inconclusive = small, poorly fitted or top-dose-only effect, or another doubt; inactive = no such curve, though single readings can be large or run the other way. The list shows a part of the results.

Assay: Primary qHTS for Identification of Small Molecule Activators of Huntingtin-Antisense Promoter Activity; also: nearly all actives have a fitted effect of over 55% in size
Conditions: HEK293 HTT-AS promoter firefly luciferase reporter (activity 0% = vehicle and -100% = no light), 24 h; series mostly up to 57.5 µM; activity change, positive = activation: at the top concentration
Outline: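 Luminescence was read after Dual-Glo reagent and a 10 min room-temperature incubation. Values were normalized to vehicle (0% activity) and zero RLU (-100% activity). Reporter HEK293 cells had been exposed to compounds (up to 57.5 uM final) for 24 h.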

Row | SMILES | activity change, positive = activation
1 | O=S(=O)(c1cccc(Cl)c1)c1nnn2c1nc(NC1CCCCCC1)c1sccc12 | inactive: -16.7%
2 | Cc1ccc(S(=O)(=O)c2c(C)nn(-c3ccccc3)c2OC(=O)c2ccccc2F)cc1 | inactive: -14.6%
3 | COC(=O)N[C@H](C(=O)N[C@@H](Cc1ccccc1)[C@@H](O)CN(Cc1ccc(-c2ccccn2)cc1)NC(=O)[C@@H](NC(=O)OC)C(C)(C)C)C(C)(C)C | inactive
4 | CCN(CC)c1ccc(NC(=O)C2COc3ccc(OC)cc3C2)c(C)c1 (configuration not stated) | inactive: -41.2%
5 | CCOc1ccc(CCNC(=O)c2ccc3nc(CC)c(CC)nc3c2)cc1 | inactive: 0.997%
6 | CCOc1ccc(OCC(=O)Nc2c(C(=O)Nc3ccc(C)cc3)oc3ccccc23)cc1 | inactive: -9.7%
7 | Cc1c(C(=O)N(C)c2cccc(C(F)(F)F)c2)sc2nc3n(c(=O)c12)CCCCC3 | inactive: -25.5%
8 | Fc1ccc(CNc2nc3ccc(Cl)cc3n3nnnc23)cc1 | inactive: 16.8%
9 | O=C(c1ccc2c(Cl)c3c(nc2c1)CCCC3)N1CCN(c2cccc(Cl)c2)CC1 | inactive: -8.65%
10 | CCc1ccc(-c2ccc(C(=O)Oc3ccc(Br)cc3)cc2)nc1 | inactive: 8.97%
11 | COc1ccc(NC(=O)C2=C(C)Nc3nc(SCc4ccccc4)nn3C2c2cc(OC)ccc2OC)cc1 (configuration not stated) | inactive: -0.178%
12 | Cc1c(C)n(C)c2ccc(C(=O)NCCCN3CCCCC3)cc12 | inactive: -7.94%
13 | Cc1cccc(N2C(=O)CCSC23C(=O)N(Cc2ccc(F)cc2)c2ccccc23)c1 (configuration not stated) | inactive: -53.8%
14 | Cc1ccc(-c2c(C(=O)NCCc3ccc(Cl)cc3)oc(=O)c3ccccc23)cc1 | inactive: -50%
15 | Cc1nnc(SCC(=O)NCc2ccccc2F)c2nn(-c3ccc(Cl)cc3)c(C)c12 | inactive: -47.6%
16 | COCCc1nn2c(=O)cc(COC(=O)c3ccc(C(C)(C)C)cc3)nc2s1 | inactive: -27.3%
17 | COc1ccc(CNc2ncnc3c2c(-c2ccccc2)cn3-c2ccccc2)cc1 | inactive: -19.9%
18 | CCN(CC)S(=O)(=O)c1ccc(C(=O)N=c2sc3cccc(OC)c3n2C)cc1 | inactive: -12.7%
19 | Cc1ccc(S(=O)(=O)c2nc(-c3ccc(Cl)cc3)oc2N2CCCCCC2)cc1 | inactive: -27%
20 | Cc1c(-c2cccc(NC(=O)C(C)(C)C)c2)nc2ncccn12 | inactive: -7.11%
21 | Cc1ccc(-c2nc(SCc3ccc(Br)cc3)n3[nH]c(=O)cc3n2)cc1 | inactive: -62.5%
22 | CN1CC(=O)N(CC(=O)Nc2ccc(Cl)c(C(F)(F)F)c2)c2ccccc2C1=O | inactive: -26.1%
23 | CCOC(=O)c1ccccc1NC(=O)Cn1c(=O)n(Cc2ccccc2)c(=O)c2c(C)c(C)sc21 | inactive: 0.881%
24 | O=C1C(c2[nH]c3ccccc3c2O)=Nc2ccccc21 | inactive: 3.15%

Row | SMILES | activity change, positive = activation
25 | CN1CCC(Nc2ncc3ncnc(Nc4ccc(F)c(Cl)c4)c3n2)CC1 | inactive: -10.8%
26 | CCN(c1ccc(Cl)cc1)S(=O)(=O)c1nnc(NC(=O)C(C)C)s1 | inactive: -11.1%
27 | CCC(=O)Oc1ccc(-c2nc3ccccc3c(=O)o2)cc1 | inactive: -5.43%
28 | Cc1ccc(-n2ncc(C(=O)N3CCN(Cc4ccccc4)CC3)c2C2CCN(C(=O)OC(C)(C)C)CC2)c(C)c1 | inactive: -1.77%
29 | CC(C)(C)OC(=O)N1CCC(c2c(C(=O)NCc3ccco3)cnn2-c2ccc(F)cc2)CC1 | inactive: -9.32%
30 | Cc1ccc(C)c(S(=O)(=O)c2nnn3c2nc(NCc2ccc4c(c2)OCO4)c2sccc23)c1 | inactive: -5.67%
31 | CN(C)c1ccc(NC(=O)Cn2c(SCc3ccccc3F)nc3cccnc32)cc1 | inactive: 6.37%
32 | COc1ccc(-c2nnc(SCC(=O)Nc3ccc(F)cc3)s2)cc1 | inactive: -86.7%
33 | CN(C)c1ccc(C(CNS(=O)(=O)c2ccc(Br)cc2)N2CCOCC2)cc1 (configuration not stated) | inactive: -20.6%
34 | O=c1c2sc3ccccc3c2n(Cc2ccccc2F)c(=O)n1CCc1ccccc1 | inactive: 22.6%
35 | Oc1ccc(CCNCCCCCCNCCc2ccccc2)cc1O | inactive: -7.06%
36 | CC(=O)c1ccc(NC(=O)NCCc2c[nH]c3ccccc23)cc1 | inactive: 5.82%
37 | CCCCCn1c(=O)[nH]c2cc(C(=O)Nc3ccc(F)cc3)ccc2c1=O | inactive: -0.38%
38 | Cc1cccc(-c2nc3scc(CCNC(=O)c4ccccc4Cl)n3n2)c1 | inactive: -11.1%
39 | CCOC(=O)C1CCN(S(=O)(=O)c2cc(-c3cc(C)no3)ccc2C)CC1 | inactive: -20.5%
40 | Cc1cccc(NC(=O)CSc2nnc(CNC(=O)c3c(F)cccc3Cl)o2)c1C | inactive: -6.39%
41 | CC(C)c1nn2c(=O)cc(COC(=O)c3ccc(NC(=O)CCc4ccccc4)cc3)nc2s1 | inactive: 28.8%
42 | CC1CCN(CCNC(=O)c2ccc(Cn3c(SCc4ccccc4)nc4cccnc43)cc2)CC1 | inactive: 4.92%
43 | COc1ccccc1CNC(=O)c1cccc(Nc2nc3ccccc3n3nnnc23)c1 | inactive: -0.998%
44 | Cc1ccc2nc(N3CCN(c4cccc(C)c4C)CC3)c3nnnn3c2c1 | inactive: -4.45%
45 | CCC1CN(C(=O)N2CCC(C(=O)NCc3cccs3)CC2)c2cc(C)ccc2O1 (configuration not stated) | inactive: -23.5%
46 | CCc1cccc(NC(=O)CSc2ncc3c(n2)-c2ccccc2N(Cc2ccccc2C)S3(=O)=O)c1 | inactive: 15.7%
47 | O=C(COc1ccc(F)cc1)Nc1ccc2nc(SCc3ccccc3)sc2c1 | inactive: 5.26%
